Laboratory results from EPA's CvTdb concentration-time database.
The source gives many values for each of these; only a part stands here.

Legend:
Rat [1] = assay: concentration in brain after dosing; details: 0.5 h; dosed: 2-Methyltetrahydrofuran; 30 mg/kg; oral; Male; F344
Rat [2] = assay: concentration in brain after dosing; details: 8 min; dosed: 2-Methyltetrahydrofuran; 10 mg/kg; oral; Female; F344
Rat [3] = assay: concentration in plasma after dosing; details: 8 min; dosed: 2-Methyltetrahydrofuran; 30 mg/kg; oral; Male; F344
Rat [4] = assay: concentration in brain after dosing; details: 2 h; dosed: 2-Methyltetrahydrofuran; 10 mg/kg; oral; Male; F344
Rat [5] = assay: concentration in brain after dosing; details: 0.5 h; dosed: 2-Methyltetrahydrofuran; 10 mg/kg; oral; Male; F344
Rat [6] = assay: concentration in brain after dosing; details: 20 min; dosed: 2-Methyltetrahydrofuran; 100 mg/kg; oral; Female; Harlan Sprague Dawley
Rat [7] = assay: concentration in brain after dosing; details: 0.5 h; dosed: 2-Methyltetrahydrofuran; 30 mg/kg; oral; Male; F344; remark: listed apart in the source
Rat [8] = assay: concentration in brain after dosing; details: 5 min; dosed: 2-Methyltetrahydrofuran; 10 mg/kg; iv; Female; F344
Rat [9] = assay: concentration in plasma after dosing; details: 5 min; dosed: 2-Methyltetrahydrofuran; 100 mg/kg; oral; Female; Harlan Sprague Dawley
Rat [10] = assay: concentration in brain after dosing; details: 4 min; dosed: 2-Methyltetrahydrofuran; 10 mg/kg; oral; Female; F344
Rat [11] = assay: concentration in plasma after dosing; details: 2 min; dosed: 2-Methyltetrahydrofuran; 30 mg/kg; oral; Male; F344
Rat [12] = assay: concentration in plasma after dosing; details: 10 min; dosed: 2-Methyltetrahydrofuran; 30 mg/kg; oral; Male; F344
Rat [13] = assay: concentration in plasma after dosing; details: 10 min; dosed: 2-Methyltetrahydrofuran; 100 mg/kg; oral; Male; Harlan Sprague Dawley
Rat [14] = assay: concentration in brain after dosing; details: 8 min; dosed: 2-Methyltetrahydrofuran; 10 mg/kg; oral; Female; F344; remark: listed apart in the source
Rat [15] = assay: concentration in plasma after dosing; details: 10 min; dosed: 2-Methyltetrahydrofuran; 30 mg/kg; oral; Female; F344
Rat [16] = assay: concentration in brain after dosing; details: 8 min; dosed: 2-Methyltetrahydrofuran; 30 mg/kg; oral; Female; F344
Rat [17] = assay: concentration in plasma after dosing; details: dosed: Bromochloroacetic acid, 100 mg/kg, oral, Male, F344
Rat [18] = assay: concentration in plasma after dosing; details: 2 min; dosed: Bromochloroacetic acid; 10 mg/kg; iv; Male; F344
Rat [19] = assay: concentration in plasma after dosing; details: dosed: Bromochloroacetic acid, 100 mg/kg, oral, Male, F344; remark: listed apart in the source
Rat [20] = assay: concentration in plasma after dosing; details: dosed: Bromochloroacetic acid, 100 mg/kg, oral, Female, F344
Rat [21] = assay: concentration in plasma after dosing; details: dosed: Fluorotelomer alcohol 8+2, 40 mg/kg, oral, Female, Harlan Sprague Dawley
Rat [22] = assay: concentration in plasma after dosing; details: 1 h; dosed: Fluorotelomer alcohol 8+2; 24 mg/kg; oral; Male; Harlan Sprague Dawley
Rat [23] = assay: concentration in plasma after dosing; details: 3 h; dosed: Fluorotelomer alcohol 8+2; 24 mg/kg; oral; Male; Harlan Sprague Dawley
Rat [24] = assay: concentration in plasma after dosing; details: dosed: Fluorotelomer alcohol 8+2, 40 mg/kg, oral, Female, Harlan Sprague Dawley; remark: listed apart in the source
Rat [25] = assay: concentration in plasma after dosing; details: dosed: Formamide, 90 mg/kg, iv, Male, Harlan Sprague Dawley
Rat [26] = assay: concentration in plasma after dosing; details: dosed: Formamide, 30 mg/kg, iv, Female, F344
Rat [27] = assay: concentration in plasma after dosing; details: 2 h; dosed: Formamide; 30 mg/kg; iv; Female; F344
Rat [28] = assay: concentration in plasma after dosing; details: dosed: Formamide, 300 mg/kg, oral, Female, Harlan Sprague Dawley
Rat [29] = assay: concentration in plasma after dosing; details: dosed: Formamide, 600 mg/kg, oral, Female, Harlan Sprague Dawley
Rat [30] = assay: concentration in plasma after dosing; details: 2 min; dosed: Pyridine; 10 mg/kg; iv; Female; F344
Rat [31] = assay: concentration in plasma after dosing; details: 9 h; dosed: Pyridine; 200 mg/kg; oral; Female; Harlan Sprague Dawley
Rat [32] = assay: concentration in plasma after dosing; details: 2 min; dosed: Pyridine; 200 mg/kg; oral; Female; F344
Rat [33] = assay: concentration in plasma after dosing; details: 20 min; dosed: Pyridine; 200 mg/kg; oral; Female; Harlan Sprague Dawley
Rat [34] = assay: concentration in plasma after dosing; details: 40 min; dosed: Pyridine; 50 mg/kg; oral; Male; Harlan Sprague Dawley
Rat [35] = assay: concentration in plasma after dosing; details: 5 h; dosed: Pyridine; 200 mg/kg; oral; Female; Harlan Sprague Dawley
Rat [36] = assay: concentration in plasma after dosing; details: dosed: Pyridine, 25 mg/kg, oral, Female, F344
Rat [37] = assay: concentration in plasma after dosing; details: 6 h; dosed: Pyridine; 50 mg/kg; oral; Female; Harlan Sprague Dawley
Rat [38] = assay: concentration in plasma after dosing; details: dosed: Pyridine, 5 mg/kg, iv, Female, F344

CC1CCCO1 (centres undefined) [2-Methyltetrahydrofuran]
Details	concentration in brain [µg/g]	concentration in plasma [µg/mL]
Rat [1]	14.2	–
Rat [2]	3.05	–
Rat [3]	–	9.56
Rat [4]	0.0804	–
Rat [5]	2.93	–
Rat [6]	45.3	–
Rat [7]	13.3	–
Rat [8]	7.24	–
Rat [9]	–	36.8
Rat [10]	2.07	–
Rat [11]	–	0.934
Rat [12]	–	18.6
Rat [13]	–	59.6
Rat [14]	3.91	–
Rat [15]	–	13.5
Rat [16]	8.65	–

O=C(O)C(Cl)Br (centres undefined) [Bromochloroacetic acid]
Details	concentration in plasma [µg/mL]
Rat [17], 4.5 h	3.1
Rat [17], 10 min	3.71
Rat [19], 3 h	11.2
Rat [19], 5 min	6.47
Rat [20], 1.5 h	19.8
Rat [20], 2 min	3.96

Details	concentration in plasma [µg/mL]
Rat [18]	25.5

OCCC(F)(F)C(F)(F)C(F)(F)C(F)(F)C(F)(F)C(F)(F)C(F)(F)C(F)(F)F [Fluorotelomer alcohol 8+2]
concentration in plasma [ng/mL]
Details	0.25 h	1 h	6 h	24 h
Rat [21]	166	–	103	–
Rat [24]	–	585	–	2.33

Details	concentration in plasma [ng/mL]
Rat [22]	361
Rat [23]	195

NC=O [Formamide]
Details	concentration in plasma [µg/mL]
Rat [25], 5 min	131
Rat [25], 36 h	22.5
Rat [26], 0.25 h	33.2
Rat [26], 24 h	5.5
Rat [28], 0.5 h	198
Rat [28], 48 h	76.3
Rat [29], 1.5 h	704
Rat [29], 30 h	172

Details	concentration in plasma [µg/mL]
Rat [27]	34.6

c1ccncc1 [Pyridine]
Details	concentration in plasma [µg/mL]
Rat [30]	7.28
Rat [31]	75.4
Rat [32]	66
Rat [33]	90.2
Rat [34]	37.5
Rat [35]	85.5
Rat [37]	15.2

concentration in plasma [µg/mL]
Details	0.25 h	1 h	6 h	8 h
Rat [36]	–	19.1	–	15.7
Rat [38]	3.29	–	1.84	–
